Results from PubChem BioAssay AID889 (National Center for Advancing Translational Sciences (NCATS), 2007).
In all, about 75,000 compounds went through this assay and about 15 (0.02%) were called active. The inconclusive results got no clear call from the source; some entries with a clear call stand among them for comparison. Calls come from the whole dose curve; as a rule, active = well fitted inhibition curve with a large enough effect in the main read-out, with a control signal flat (not every such curve was filed as active); inconclusive = small, poorly fitted or top-dose-only effect, or a change in a side signal; inactive = flat fitted curve, though single readings scatter. A potency beside an inconclusive call is a rough fit, not a confirmed value. A note “side channel” means that the fit belongs to a control or component signal, not to the main read-out.

Target: Caspase-7 (Homo sapiens) (UniProt P55210)
Experiment: qHTS Assay for Allosteric/Competitive Inhibitors of Caspase-7; for activity change, negative = inhibition: % of control where 0% means no effect
Conditions: recombinant caspase-7, Ac-DEVD-AFC fluorescence rate; activity change, negative = inhibition: at 57.5 µM (top of the series) unless noted
Potency is the fitted concentration of half-maximal effect; tags give direction and shape of the fitted curve or compound fluorescence and quenching.

Sequence of UniProt P55210 (P55210 whole entry, looked up): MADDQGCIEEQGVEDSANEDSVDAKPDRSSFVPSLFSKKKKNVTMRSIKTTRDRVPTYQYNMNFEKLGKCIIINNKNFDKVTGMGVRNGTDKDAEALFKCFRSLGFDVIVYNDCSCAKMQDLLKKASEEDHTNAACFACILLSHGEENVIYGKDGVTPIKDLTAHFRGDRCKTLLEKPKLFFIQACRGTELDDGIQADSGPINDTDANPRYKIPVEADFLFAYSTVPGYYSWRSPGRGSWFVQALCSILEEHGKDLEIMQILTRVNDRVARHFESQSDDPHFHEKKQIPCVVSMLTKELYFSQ

| Structure (SMILES) | Potency | activity change, negative = inhibition |
| --- | --- | --- |
| COc1ccc(-c2oc3cc(OC)ccc3c2C(=O)c2ccc(C#N)cc2)cc1 | inconclusive: 25.1 µM [inhibitor, partial curve] |  |
| CCc1c(C)c2cc(Cl)c(O)c(CN(C)C)c2oc1=O | inconclusive: 12.6 µM [fluorescent, side channel, partial curve] |  |
| COc1ccc(NC(=O)c2cnc(C)cn2)cc1-n1cnnn1 |  | inactive: -0.887% |
| CCNc1ncc2nc(-c3ccc(Cl)cc3)c(=O)n(-c3ccccc3)c2n1 | inconclusive: 2 µM [fluorescent, side channel, full curve] |  |
| N#CC1=C(N)C(C#N)(C#N)[C@H](c2ccsc2)[C@H]2COCC=C12 | inconclusive: 31.6 µM [inhibitor, single point] |  |
| C=C(C)COc1ccc(-c2nc(N)ncc2Oc2ccc(OC)cc2)c(O)c1 | inconclusive: 39.8 µM [fluorescent, side channel, single point] |  |
| CN(C)/C=C1\C(=O)c2ccc(N(C)C)nc2CC1c1ccccc1 (stereo not drawn) | inconclusive: 31.6 µM [inhibitor, single point] |  |
| O=c1c(-c2cc(F)cc(F)c2)nc2cnc(Nc3ccccc3)nc2n1C[C@H]1CCCO1 | inconclusive: 2 µM [inhibitor, partial curve] |  |
| CCc1ccc(C2C(C#N)=C(N)SC(N)=C2C#N)s1 | inconclusive: 31.6 µM [inhibitor, single point] |  |
| O=c1c2cc(N3CCOCC3)ccc2[nH]c(=S)n1CC1CCCO1 (stereo not drawn) | inconclusive: 25.1 µM [fluorescent, partial curve] |  |
| CC1(C)CC(=O)C2=C(C1)N(CCN1CCOCC1)C1=C(C(=O)CC(C)(C)C1)C2c1cccc(F)c1 | inconclusive: 12.6 µM [fluorescent, side channel, partial curve] |  |
| COCCOC(=O)C1=C(C)N=c2s/c(=C\c3cccs3)c(=O)n2C1c1cccs1 (stereo not drawn) | inconclusive: 31.6 µM [fluorescent, single point] |  |
| O=C(c1ccco1)N1CCC[C@@]2(CCN(C(c3ccccc3)c3ccccc3)C2)C1 |  | inactive: -3.25% |
| CCNc1ncc2nc(-c3cc(F)cc(F)c3)c(=O)n(C)c2n1 | inconclusive: 3.16 µM [fluorescent, side channel, full curve] |  |
| CN1CCN(c2ncc3nc(-c4cccs4)c(=O)n(CCC#N)c3n2)CC1 | inconclusive: 2.51 µM [fluorescent, side channel, partial curve] |  |
| COc1cc(C2=NOC(C(=O)N3CCN(c4ccc(F)cc4)CC3)C2)cc(OC)c1OC (stereo not drawn) |  | inactive: -0.871% |
| CCc1c(C)c2ccc(O)c(CN(C)C)c2oc1=O | inconclusive: 12.6 µM [fluorescent, side channel, partial curve] |  |
| O=c1c(-c2cccs2)nc2cncnc2n1C1CC1 | inconclusive: 12.6 µM [fluorescent, partial curve] |  |
| CCCN1CCCc2cc(CN)ccc21 | inconclusive: 15.8 µM [fluorescent, side channel, partial curve] |  |
| CC(C)Cn1c(CN(C)Cc2ccccc2)nc2c1c(=O)n(C)c(=O)n2C | inconclusive: 31.6 µM [fluorescent, side channel, single point] |  |
| Cc1nc2nc(-c3cccs3)cn2nc1C | inconclusive: 3.98 µM [fluorescent, side channel, partial curve] |  |

| Structure (SMILES) | Potency | activity change, negative = inhibition |
| --- | --- | --- |
| COn1c(C)c(C(C)=O)c2c3nonc3ccc21 | inconclusive: 15.8 µM [fluorescent, side channel, partial curve] |  |
| CN1CCN(c2ncc3ncc(=O)n(C4CC4)c3n2)CC1 | inconclusive: 25.1 µM [inhibitor, single point] |  |
| COCCn1c(=O)c(-c2ccc(F)cc2)nc2cnc(Oc3ccc(OC)cc3)nc21 | inconclusive: 39.8 µM [inhibitor, single point] |  |
| CC1(C)Cc2c(C#N)c(N3CCCC3)nc(-c3ccco3)c2CO1 | inconclusive: 12.6 µM [fluorescent, side channel, partial curve] |  |
| CC(=O)Nc1nc2n(n1)C(c1ccc(Cl)cc1)C=C(C)N2 (stereo not drawn) | inconclusive: 25.1 µM [fluorescent, partial curve] |  |
| O=C1C=CC2=C3c4cc(O)c(O)cc4CC3(O)COC2=C1O (stereo not drawn) | inconclusive: 25.1 µM [inhibitor, partial curve] |  |
| O=C1C(C=NCc2ccco2)=C(O)c2ccccc21 |  | inactive: -1.82% |
| COc1ccc2c(Cc3c4ccccc4cc4ccccc34)cncc2c1O | inconclusive: 3.98 µM [inhibitor, partial curve] |  |
| CCSc1nnc2c(n1)OC(c1ccc(C(=O)O)cc1)N(C(C)=O)c1ccccc1-2 (stereo not drawn) | inconclusive: 25.1 µM [inhibitor, single point] |  |
| O=c1c(-c2ccc(F)cc2)nc2cnc(N3CCOCC3)nc2n1C1CC1 | inconclusive: 3.98 µM [fluorescent, side channel, partial curve] |  |
| Cc1cc2c(C)cc(=O)oc2c2c1NCCC2 | inconclusive: 3.98 µM [fluorescent, side channel, partial curve] |  |
| CC(=O)C1=C(C)NC(SCC(=O)c2ccccc2)=C(C#N)C1c1ccco1 (stereo not drawn) | inconclusive: 31.6 µM [inhibitor, single point] |  |
| COc1ccc2[nH]cc(CCNc3ccnc(-c4ccccc4C(F)(F)F)n3)c2c1 |  | inactive: -4.9% |
| CCNc1ncc2nc(-c3ccc(OC)cc3)c(=O)n(CCC#N)c2n1 | inconclusive: 2 µM [fluorescent, side channel, full curve] |  |
| C=CCc1c(C)c(C#N)c2nc3ccccc3n2c1NCCN(C)C | inconclusive: 10 µM [inhibitor, partial curve] |  |
| Cn1cc(-c2nc3cnc(Oc4ccccc4)nc3n(CCC#N)c2=O)c2ccccc21 | inconclusive: 2.51 µM [fluorescent, full curve] |  |
| CCNc1ncc2nc(-c3ccccc3)c(=O)n(Cc3ccc(F)cc3)c2n1 | inconclusive: 2 µM [fluorescent, partial curve] |  |
| Cc1nc2nc3c(cn2n1)C(=O)CC(c1ccccc1)C3 (stereo not drawn) | inconclusive: 2.51 µM [inhibitor, full curve] |  |
| O=C(Oc1ccccc1)c1ccc(-n2cnnn2)cc1 |  | inactive: 0.421% |
| CCOC(=O)c1ccccc1NC(=O)CSc1nnc(Cc2cccn2C)n1-c1ccc(C)cc1 |  | inactive: -11.3% |
| CC[C@H](CN(C)C)C(=O)c1ccco1 |  | inactive: 0.522% [at 11.5 µM] |

| Structure (SMILES) | Potency | activity change, negative = inhibition |
| --- | --- | --- |
| CCCCC(=O)Nc1nn(CCC)c2nc3ccccc3cc12 | inconclusive: 25.1 µM [fluorescent, partial curve] |  |
| Fc1ccc2nc3[nH]c4ccccc4c3nc2c1 | inconclusive: 39.8 µM [fluorescent, side channel, single point] |  |
| Cc1ccc2nc3c(cc(C#N)c(=O)n3-c3nccs3)c(=O)n2c1 | inconclusive: 6.31 µM [fluorescent, side channel, partial curve] |  |
| CCOc1ccc(-c2cc(CCCC(=O)NCc3cccnc3)no2)cc1 |  | inactive: 0.362% |
| Cc1ccc(CNC(=O)c2cc3c(=O)n4cccc(C)c4nc3n(CC3CCCO3)c2=N)cc1 (stereo not drawn) | inconclusive: 5.01 µM [fluorescent, side channel, partial curve] |  |
| COC(=O)c1ccc2c(=O)sc(N3CCC(C(N)=O)CC3)nc2c1 | inconclusive: 12.6 µM [fluorescent, partial curve] |  |
| O=C(COc1ccc(Cl)cc1Cl)Nc1ccc(Cl)cn1 |  | inactive: -2.06% |
| Cn1c2ccc(Cl)cc2c2nc3ccccc3nc21 | inconclusive: 31.6 µM [fluorescent, single point] |  |
| COc1ncc2nc(-c3ccc(Cl)cc3)c(=O)n(Cc3cccs3)c2n1 | inconclusive: 10 µM [inhibitor, partial curve] |  |
| CCCCCn1c(=N)n(CC(O)COc2ccccc2OC)c2ccccc21 (stereo not drawn) |  | inactive: -0.0002% |
| N#Cc1c2c(c(=S)n(-c3ccccc3)c1N)CCCC2 | inconclusive: 25.1 µM [fluorescent, partial curve] |  |
| COCCn1c(=O)c(-c2ccccc2)nc2cnc(N3CCN(C)CC3)nc21 | inconclusive: 10 µM [fluorescent, side channel, partial curve] |  |
| COc1ccc(CCCO[C@@H](Cn2ccnc2)c2ccc(OC)cc2)cc1 |  | inactive: -2.16% |
| CCn1c(Cc2ccc(OC)cc2)nnc1SCC(=O)Nc1cccc(C(=O)OC)c1 | inconclusive: 10 µM [fluorescent, side channel, partial curve] |  |
| Nc1ncnc2c1ncn2[C@@H]1CCCO1 |  | inactive: -1.15% |
| CN1CC=C2C(C#N)=C(N)C(C#N)(C#N)C(CCc3ccccc3)C2C1 (stereo not drawn) | inconclusive: 31.6 µM [fluorescent, single point] |  |
| COCCCn1c(=N)c(C(=O)NCC2CCCO2)cc2c(=O)n3ccccc3nc21 (stereo not drawn) | inconclusive: 5.01 µM [fluorescent, side channel, partial curve] |  |
| Cc1ccc(Cn2c(=S)[nH]c3ccc(N4CCOCC4)cc3c2=O)o1 | inconclusive: 15.8 µM [fluorescent, side channel, partial curve] |  |
| Cc1oc(C)c2c(=O)ccc3c(c12)OC(N)=C(C#N)C3c1ccc(F)cc1 (stereo not drawn) | inconclusive: 31.6 µM [inhibitor, single point] |  |
| O=C(CN1C(=O)c2cccc3cccc1c23)NCc1ccc2c(c1)OCO2 | inconclusive: 31.6 µM [fluorescent, single point] |  |
| Clc1ccccc1-c1nc(NCc2cccs2)c2ccccc2n1 | inconclusive: 20 µM [inhibitor, partial curve] |  |
